Results taken from PubChem BioAssay AID488969 (Vanderbilt High Throughput Screening Facility, 2010).
Whole data set: some 110,000 compounds, median “z-score” near -0.1, cut for the highest 2% near 2. This is one part of the list.

target: Metabotropic glutamate receptor 8 (Rattus norvegicus) (UniProt P70579); assay: mGluR8 Gi/Go-coupled signaling modulation – cell-based, rat, thallium flux, HTS, primary screen (AID 488969); details: HEK293 rat mGluR8, GIRK (G protein-gated inwardly rectifying potassium channel) thallium flux, FluoZin2; at 10 µM; stronger effect = higher value; submaximal glutamate (EC20) added with thallium
UniProt P70579, sequence (P70579 whole entry, looked up): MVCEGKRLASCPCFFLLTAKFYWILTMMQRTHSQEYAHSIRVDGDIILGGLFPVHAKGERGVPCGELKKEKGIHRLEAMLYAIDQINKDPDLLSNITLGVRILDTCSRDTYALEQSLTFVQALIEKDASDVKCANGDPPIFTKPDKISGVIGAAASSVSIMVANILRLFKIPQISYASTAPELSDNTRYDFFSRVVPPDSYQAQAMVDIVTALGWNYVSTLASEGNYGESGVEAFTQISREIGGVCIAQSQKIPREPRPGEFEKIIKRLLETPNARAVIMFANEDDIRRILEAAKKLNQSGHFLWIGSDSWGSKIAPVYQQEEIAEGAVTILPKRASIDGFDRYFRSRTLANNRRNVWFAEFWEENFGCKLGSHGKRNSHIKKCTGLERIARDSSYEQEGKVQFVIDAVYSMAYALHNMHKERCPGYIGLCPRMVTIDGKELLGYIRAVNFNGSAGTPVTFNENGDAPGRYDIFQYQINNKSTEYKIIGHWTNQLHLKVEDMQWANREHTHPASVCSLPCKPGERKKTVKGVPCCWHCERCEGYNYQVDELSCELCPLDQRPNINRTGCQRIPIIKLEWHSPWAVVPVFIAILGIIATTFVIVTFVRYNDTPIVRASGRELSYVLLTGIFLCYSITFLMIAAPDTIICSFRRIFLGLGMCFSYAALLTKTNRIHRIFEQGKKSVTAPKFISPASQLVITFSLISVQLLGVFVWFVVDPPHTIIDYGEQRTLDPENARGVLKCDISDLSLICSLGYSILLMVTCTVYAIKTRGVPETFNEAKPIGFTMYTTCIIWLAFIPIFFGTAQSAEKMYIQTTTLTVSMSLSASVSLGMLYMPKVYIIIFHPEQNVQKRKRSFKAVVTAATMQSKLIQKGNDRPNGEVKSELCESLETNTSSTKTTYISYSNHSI

SMILES | z-score
C=CCOc1nc2c(c(=O)n(Cc3ccc(Cl)c(Cl)c3)c(=O)n2C)n1C | 0.181
Cc1ccc2cc(CN(Cc3ccco3)C(=O)C3CCCCC3)c(=O)[nH]c2c1C | -0.462
CCOc1ccc(-c2cnc(SCC(N)=O)nc2N)cc1 | -0.114
N#CCc1nc2n(n1)Cc1ccccc1-2 | -0.162
O=C(c1cccs1)N1CCC(c2ccccc2)C1 (stereo not given) | -0.355
FC(F)(F)c1nc2ccccc2nc1N/N=C\c1ccccc1 | 0.3
CNCc1ccccc1OCC(=O)Nc1ccccc1OC | 0.00756
COc1cc(C=C(C(C)=O)C(C)=O)ccc1O | -0.241
O=P(O)(CN1CCCCCC1)CN1CCCCCC1 | 1.73
CCOc1ccc(Br)cc1S(=O)(=O)Nc1ccc(C(=O)Nc2ccc(C)cc2)cc1 | 0.0526
CSc1sc(C)cc1C1C(C#N)=C(N)N(c2cccnc2)C2=C1C(=O)CC(C)(C)C2 (stereo not given) | 0.694
O=C(NCC(c1cccnc1)N1CCN(c2ccc(F)cc2)CC1)C1CCCCC1 (stereo not given) | 0.396
CCCCn1c(SCC(=O)Nc2cc(C)[nH]n2)nc2ccsc2c1=O | -0.528
CCOC(=O)N1CCN(c2c(N3CCC(N4CCCCC4)CC3)c(=O)c2=O)CC1 | -0.197
CC1(C)CC(=O)c2cnc(N3CCN(c4ccccc4)CC3)nc2C1 | 1.09
CC(=O)NCCc1ccc(S(=O)(=O)N(C)C2CCS(=O)(=O)C2)cc1 (stereo not given) | 0.0497
O=C(Cn1cnc2c(cnn2-c2ccccc2)c1=O)Nc1ccc(S(=O)(=O)N2CCOCC2)cc1 | -0.156
C=CCNC(=O)CSc1nc2cc(C(=O)OCC)ccc2n1CC | -0.074
Brc1cnc(N2CCCC2)nc1N1CCCCC1 | -0.0143
CC(C)CCNC(=O)CNC(=S)N(Cc1ccccc1)Cc1cccnc1 | 0.196
O=C(CSc1ccc2nnc(-c3ccc(Cl)cc3)n2n1)N1CCCc2ccccc21 | 0.00121
COCCn1c(-c2cccc([N+](=O)[O-])c2)nc2c1c(=O)[nH]c(=O)n2Cc1ccccc1 | -0.444
COc1ccc(S(=O)(=O)N(CC(=O)O)Cc2ccccc2)cc1OC | 0.601
COc1cc(-c2noc(-c3ccccc3C(=O)NCc3ccco3)n2)cc(OC)c1OC | -0.342
CCN(CC)c1ccc(/C=N/n2c(=S)[nH]nc(C)c2=O)cc1 | 0.495
CCN(CC)C(=O)c1sc(NC(=O)C(Sc2ccccc2)c2ccccc2)c(C(=O)OC(C)C)c1C (stereo not given) | -0.0795
CC(/C=C/c1ccccc1)=N\NC(=O)c1ccncc1 | -0.0615
O=C(O)CCCCCNc1nc2ncn(Cc3ccccc3)c2c(=O)[nH]1 | -0.725
Cn1c2ccccc2c2c(C(=O)NCc3ccco3)cn(C3CCCCC3)c(=O)c21 | -0.469
CC(=C/C(=O)O)/C(=C/c1ccccc1)C(=O)O | -0.139
